Each structure is given as a SMILES string. Values joined by “and” are separate entries in the source; they are usually repeats but may differ in a detail not shown here. Identical values can stand only once. The whole screen tested about 2,000 compounds, of which about 45 (2%) were called active.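 The calls were made as follows: active = inhibition above the mean of all tested compounds plus 3 SD (cut at about 49% in these data); inactive = the rest.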 The list shows a part of the results.

This test deals with Perilipin-5 (Homo sapiens) + 1-acylglycerol-3-phosphate O-acyltransferase ABHD5 (Homo sapiens) (UniProt Q00G26+Q8WTS1). Nature of the test: ABHD5-PLIN5 interaction inhibitors, pilot screen, cell lysate, split luciferase complementation, luminescence, NIH validation set (AID 493035).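 Also: 0% = DMSO only wells while the 100% control is not stated.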 Particulars: split G. princeps luciferase complementation, lysates, 4 h, at 7.9 µM, active compounds read high.
Sequence of UniProt Q00G26 (Q00G26 whole entry, looked up): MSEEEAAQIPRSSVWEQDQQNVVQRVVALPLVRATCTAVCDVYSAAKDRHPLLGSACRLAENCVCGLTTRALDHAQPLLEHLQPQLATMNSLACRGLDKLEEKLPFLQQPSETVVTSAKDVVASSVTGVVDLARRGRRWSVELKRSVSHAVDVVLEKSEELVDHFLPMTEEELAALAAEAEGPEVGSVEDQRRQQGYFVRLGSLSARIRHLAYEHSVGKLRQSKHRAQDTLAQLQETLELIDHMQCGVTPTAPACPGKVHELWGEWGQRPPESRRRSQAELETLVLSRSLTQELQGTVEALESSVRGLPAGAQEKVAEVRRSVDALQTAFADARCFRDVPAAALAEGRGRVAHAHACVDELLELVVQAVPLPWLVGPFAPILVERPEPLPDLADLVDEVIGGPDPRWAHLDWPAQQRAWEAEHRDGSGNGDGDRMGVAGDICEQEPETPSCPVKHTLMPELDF
Sequence of UniProt Q00G26 (Q8WTS1 whole entry, looked up): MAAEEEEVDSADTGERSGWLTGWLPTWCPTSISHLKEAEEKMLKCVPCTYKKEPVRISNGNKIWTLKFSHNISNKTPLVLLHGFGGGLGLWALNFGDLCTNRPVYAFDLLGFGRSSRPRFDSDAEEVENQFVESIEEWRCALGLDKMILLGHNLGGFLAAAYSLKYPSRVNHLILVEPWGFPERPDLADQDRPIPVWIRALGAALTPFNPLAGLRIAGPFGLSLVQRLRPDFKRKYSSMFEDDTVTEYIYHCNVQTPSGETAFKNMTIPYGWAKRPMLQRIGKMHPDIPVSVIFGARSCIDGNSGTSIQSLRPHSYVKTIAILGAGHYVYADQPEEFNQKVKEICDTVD
For orientation: inhibition means the drop in the measured response relative to a control, in per cent. As for `OC(c1ccccc1)(c1ccccc1)C1CCNCC1`, the inhibition was inactive: -13.8%.
Next, `COc1ccc(-c2nc3ccccc3c(=O)o2)cc1`: inactive: -1.16%; `CC(C)CCC1(CN2CCCC2=O)C(=O)NC(=O)NC1=O`: inactive: 6.93%; `CCOc1ccc(N2C(=O)NC(=O)/C(=C\c3cc(OC)c(OC)cc3[N+](=O)[O-])C2=O)cc1`: active: 66.2%.
To `CC(=O)[C@H]1CC[C@H]2[C@@H]3CC[C@H]4C[C@H](O)CC[C@]4(C)[C@H]3C(=O)C[C@]12C` belongs inactive: -7.85%; to `COc1ccc(NC2=NCC(C)S2)cc1` (stereo not given), inactive: 0.87%.
To `c1ccc2c3c([nH]c2c1)CNCC3` belongs inactive: -0.94%.
With `CN(C)[C@@H]1C(=O)C(C(N)=O)=C(O)[C@@]2(O)C(=O)C3=C(O)c4c(O)cccc4[C@@](C)(O)[C@H]3[C@H](O)[C@@H]12`, the inhibition is inactive: 13.2%.
For the compound `Cn1c(O)c(C=NCCc2c[nH]c3ccccc23)c(=O)n(C)c1=O`, the inhibition is inactive: 3.49%.
To `CC(=O)c1ccc(-c2ccccc2)cc1` belongs inactive: 8.7%; to `CCCC(=O)OCC[N+](C)(C)C`, inactive: -8.39%.
For the compound `C[C@]12CCC(=O)C(O)=C1CC[C@@H]1[C@@H]2CC[C@]2(C)C(=O)CC[C@@H]12`, the inhibition is inactive: -7.16%.
To `Cc1ccc2c(c1)C1CN(C)CCC1N2C(=O)Nc1cccc(Cl)c1` (stereo not given) belongs inactive: -3.27%.
Next, `CCN(CC)CCOC(=O)C(O)(c1ccccc1)c1ccccc1`: inactive: 0.42%; `O=C1C=Cc2ccccc2C1=O`: active: 59.1%; `C[C@]12CC[C@@H]3c4ccc(O)c(O)c4CC[C@H]3[C@@H]1CC[C@@H]2O`: inactive: 22.1%.
To `O=c1[nH]c2ccccc2n1C1CCN(CCCC(c2ccc(F)cc2)c2ccc(F)cc2)CC1` belongs inactive: -10.5%; to `Cc1cc2c(C(C)C)c(O)c(O)c(C=O)c2c(O)c1-c1c(C)cc2c(C(C)C)c(O)c(O)c(C=O)c2c1O`, active: 50.7%; to `Cc1cc(Cl)ccc1OC(C)C(=O)O` (stereo not given), inactive: -17.5%.
On to `CC(=O)Nc1cc([As](=O)(O)O)ccc1O`, for which the inhibition was inactive: -10.9%.
With `C[C@]12CCC(=O)C=C1CCC1C2CC[C@@]2(C)C1CC[C@@]2(O)CC#N` (stereo not given in full), the inhibition was inactive: -3.89%.
For `CC12CN3CC(C)(CN(C1)C3c1cccnc1)C2=O` (stereo not given), the inhibition was inactive: 4.61%.
Next, `CN[C@H](C)[C@H](O)c1ccccc1`: inactive: -0.5%; `c1ccc2c(c1)[nH]c1cnccc12`: inactive: 0.21%; `CC(C)C(=O)Nc1ccc(S(=O)(=O)N2CC3CC(C2)c2cccc(=O)n2C3)cc1` (stereo not given): inactive: -10.2%.
Next, `O=Cc1cn(Cc2ccc(F)cc2)c2ccccc12`: inactive: 2.39%; `COc1ccccc1CN1CCCCC1c1cccnc1` (stereo not given): inactive: -4.35%.
Next, `Nc1ccc([As](=O)(O)O)cc1`: inactive: 6.22%; `CC12CN3CC(C)(CN(C1)C3c1cccs1)C2=O` (stereo not given): inactive: -6.92%; `O=C1CC[C@@]2(O)[C@H]3Cc4ccc(O)c5c4[C@@]2(CCN3CC2CC2)[C@H]1O5`: inactive: 2.6%.
For `NCC1(c2ccc3c(c2)OCCO3)CCCC1`, the inhibition was inactive: -7.35%.
Take `CN1C(=O)CN=C(c2ccc(Cl)cc2)c2cc(Cl)ccc21`: the inhibition is inactive: -14.1%.
Next, `O=c1cccc2n1C[C@H]1C[C@@H]2CN2CCCC[C@@H]12`: inactive: -1.84%; `CCC1(c2ccccc2)C(=O)N(COC)C(=O)N(COC)C1=O`: inactive: 5.52%.
To `c1ccc(Cn2ccnc2)cc1` belongs inactive: -4.82%; to `CC(C)C[C@H]1C(=O)N2CCCC2[C@]2(O)O[C@](NC(=O)[C@@H]3C=C4c5cccc6[nH]cc(c56)CC4N(C)C3)(C(C)C)C(=O)N12` (stereo not given in full), inactive: 26.8%.
To `CC(C)[C@H]1C(=O)N2CCC[C@H]2[C@]2(O)O[C@](NC(=O)[C@@H]3C=C4c5cccc6[nH]cc(c56)C[C@H]4N(C)C3)(C(C)C)C(=O)N12` belongs inactive: 14.3%; to `C[N+]1(C)C2CCC1CC(OC(=O)C(CO)c1ccccc1)C2` (stereo not given), inactive: -3.97%.
Regarding `O=c1c2ccccc2[se]n1-c1ccccc1`, the inhibition was active: 95.1%.
To `CC(C)(C)C(O)C(Oc1ccc(Cl)cc1)n1cncn1` (stereo not given) belongs inactive: -18.2%.
To `c1ccc2c(c1)Nc1ccccc1S2` belongs inactive: -1.15%; to `NCC(O)c1ccc(O)cc1` (stereo not given), inactive: -7.13%.
Next, `C[C@H]1CC[C@@]2(C)[C@@H](CC[C@@H]3[C@@H]2CC[C@]2(C)[C@@H](O)CC[C@@H]32)C1`: inactive: -0.69%; `S=C1NCCN1`: inactive: -0.74%; `C[N+]1(C)[C@@H]2CC(OC(=O)[C@H](CO)c3ccccc3)C[C@H]1[C@@H]1O[C@@H]12` (stereo not given in full): inactive: -0.61% and inactive: 7.09%.
For the compound `CCN(CC)C(=O)N[C@H]1C[C@@H]2c3cccc4[nH]cc(c34)C[C@H]2N(C)C1`, the inhibition was inactive: 5.32%.
Next, `CC[C@@H](CO)NC(=O)[C@@H]1C=C2c3cccc4c3c(cn4C)C[C@H]2N(C)C1`: inactive: 1.19%; `CC12CN3CC(c4ccccc4)(CN(C1)C31CCCCC1)C2=O`: inactive: -2.32%.
Next, `c1ccc2c(c1)OCC(C1=NCCN1)O2` (stereo not given): inactive: 1.63%.
Next, `CC[N+]1(C)CCCC(OC(=O)C(O)(c2ccccc2)c2ccccc2)C1` (stereo not given): inactive: -9.33%; `Clc1ccc(COC(Cn2ccnc2)c2ccc(Cl)cc2Cl)cc1` (stereo not given): inactive: -3.94%.
For `C[C@H]1CCCC(=O)CCCCCc2cc(O)cc(O)c2C(=O)O1`, the inhibition was inactive: 6.49%.
Next, `O=C1NCCN2CCCC12` (stereo not given): inactive: 0.54%; `CN1C[C@H](CNC(=O)OCc2ccccc2)C[C@@H]2c3cccc4c3c(cn4C)C[C@H]21`: inactive: -5.66%; `OCc1cnc[nH]1`: inactive: -16.1%.
Next, `O=c1c2ccccc2nc(/C=C/c2ccc3c(c2)OCO3)n1-c1ccccc1`: inactive: 2.37%; `O=C(CCCN1CCC2(CC1)C(=O)NCN2c1ccccc1)c1ccc(F)cc1`: inactive: 5.1%; `C=C1CC[C@@]2(O)[C@H]3Cc4ccc(O)c5c4[C@@]2(CCN3CC2CC2)[C@H]1O5`: inactive: 0.56%.
Next, `Cc1ccc(/C=C2/C(=O)NC(=O)N(C)C2=O)cc1`: inactive: 7.85%.
On to `C=CC1CN2CCC1CC2[C@@H](OC(=O)c1ccc(OC)cc1)c1ccnc2ccccc12` (stereo not given in full), for which the inhibition was inactive: -4.98%.
Consider `NCCc1c[nH]c2ccc(F)cc12`, for which the inhibition is inactive: -12.8%.
Next, `CCOC(=O)c1cncn1C(C)c1ccccc1` (stereo not given): inactive: 6.55%; `c1cnc2c(c1)ccc1ncccc12`: inactive: -11%.
To `CCn1c(O)c(C(=O)CC2NCCc3ccccc32)c(=O)n(CC)c1=S` (stereo not given) belongs inactive: 2.98%; to `C[N+]1(C)CCc2cc3c(cc2[C@H]1[C@@H]1OC(=O)c2c1ccc1c2OCO1)OCO3`, inactive: -2.84% and inactive: -8.79%.

Values taken from PubChem BioAssay AID493035 (The Scripps Research Institute Molecular Screening Center, 2011).
